In all, about 110,000 compounds went through this assay and about 230 (0.21%) showed an effect of 50% or more. This is one part of the list.
target: DPAP1 (Plasmodium falciparum, UniProt Q8IIJ9); experiment: primary screen, percent inhibition; read by cleavage of a fluorogenic dipeptide substrate; higher = more effect of the substance; design: species or system P. falciparum D10 trophozoite lysates; single well
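Further: 30 min substrate incubation versus DMSO and 10 µM JCP410 controls.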

Sequence of DPAP1 (Q8IIJ9 whole entry, looked up): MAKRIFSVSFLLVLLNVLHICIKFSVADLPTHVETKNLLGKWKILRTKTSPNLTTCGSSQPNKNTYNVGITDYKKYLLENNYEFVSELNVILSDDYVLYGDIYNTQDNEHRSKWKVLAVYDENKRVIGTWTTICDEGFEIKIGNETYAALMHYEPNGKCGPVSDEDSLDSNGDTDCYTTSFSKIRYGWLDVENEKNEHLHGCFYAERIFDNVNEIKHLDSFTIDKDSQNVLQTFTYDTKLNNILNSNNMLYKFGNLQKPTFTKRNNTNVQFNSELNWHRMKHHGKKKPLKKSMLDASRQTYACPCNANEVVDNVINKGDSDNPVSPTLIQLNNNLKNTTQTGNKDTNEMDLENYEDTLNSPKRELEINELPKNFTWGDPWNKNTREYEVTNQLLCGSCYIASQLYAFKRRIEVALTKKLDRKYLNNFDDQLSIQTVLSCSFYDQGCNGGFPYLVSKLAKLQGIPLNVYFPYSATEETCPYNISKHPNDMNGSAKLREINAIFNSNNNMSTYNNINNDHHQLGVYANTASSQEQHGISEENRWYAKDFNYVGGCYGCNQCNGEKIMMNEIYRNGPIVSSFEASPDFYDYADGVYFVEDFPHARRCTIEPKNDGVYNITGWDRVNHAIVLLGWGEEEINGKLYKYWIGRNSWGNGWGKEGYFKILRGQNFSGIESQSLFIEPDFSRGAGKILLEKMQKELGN

Going from `CC(C)(C)C(=O)c1cn(CC(=O)O)c2ccccc12` to `CCn1cc(C(=O)O)c(=O)c2cc(Br)ccc21`, the “% Inhibition @ 10 uM” value falls from 3.35% to -3.56%.

Going from `COc1ccc(-c2ccc(O)nn2)cc1` to `COc1cccc(-c2nc(-c3ccc(Br)cc3)no2)c1`, the “% Inhibition @ 10 uM” value rises from -3.78% to 3.53%.

Going from `O=C(N[C@@H](CC1CCCCC1)C(=O)NCCN1CCCc2ccccc21)c1ccccc1` to `O=C(N/C(=C/c1cccnc1)C(=O)N1CCCCCC1)c1ccccc1`, the “% Inhibition @ 10 uM” value falls from 1.35% to 0.687%.

First: Cc1ccsc1C(=O)NCc1ccc(Cl)cc1
Second: C=CCSc1ncc(Cl)c(C(=O)NCc2ccc(C)cc2)n1
The “% Inhibition @ 10 uM” value of the first is higher: 5.25% for the first, -1.16% for the second.

First: Cc1nc(NC2=NCN(C(C)C)CN2)nc2ccccc12
Second: Cc1ccccc1OCCn1c(C(C)O)nc2ccccc21 (centres unmarked)
The “% Inhibition @ 10 uM” value of the first is lower: -5% for the first, -0.551% for the second.

Compared with `CC1=C(C(=O)Nc2ccccc2)C(c2ccccc2)NC(S)=N1` (centres unmarked), `Cc1cc(C(=O)N(C)Cc2ccccc2)c2c(C)nn(-c3ccccc3)c2n1` is higher in “% Inhibition @ 10 uM” value: -0.341% for the first, 0.627% for the second.

Compared with `NC(=O)c1c(NC(=O)C2CCCCC2C(=O)O)sc2c1CCCC2` (centres unmarked), `CC(C)(C)C1CCc2c(sc(NC(=O)C3CCCCC3C(=O)O)c2C(N)=O)C1` (centres unmarked) is higher in “% Inhibition @ 10 uM” value: -1.88% for the first, 3.72% for the second.

First: COc1ccc(C2c3cc(OC)c(OC)cc3CCN2C(=O)c2ccc(C)cc2)cc1OC (centres unmarked)
Second: COc1ccc(-c2nnc(NC(=O)c3ccc(C(C)(C)C)cc3)s2)cc1OC
The “% Inhibition @ 10 uM” value of the first is lower: -4.64% for the first, 7.49% for the second.

First: CCSc1nc2sc3c(c2c2nnc(S)n12)CCCC3
Second: C=CCNC(=O)c1c(O)nc2c(c1O)CCCC2
The “% Inhibition @ 10 uM” value of the first is lower: -3.96% for the first, -0.458% for the second.

Compared with `O=C(Nc1cccc(-c2nc3ccccc3s2)c1)C12CC3CC(CC(C3)C1)C2`, `CCOc1ccc(C(=O)CCc2nc3ccccc3s2)cc1` is lower in “% Inhibition @ 10 uM” value: -3.42% for the first, -7.46% for the second.

Going from `COc1ccc(C(=O)Nc2cccc(F)c2)cc1OC` to `COc1ccc(NC(=O)c2ccc[n+](C)c2)cc1OCC(C)C`, the “% Inhibition @ 10 uM” value falls from 3.1% to -1.37%.

Compared with `CCC1=NC(C(F)(F)F)(C(F)(F)F)C2=C(CC(C)(C)CC2=O)N1Cc1ccccc1`, `Oc1cc(-c2ccccc2)nc2nc(C(F)(F)F)nn12` is lower in “% Inhibition @ 10 uM” value: 3.54% for the first, -4.78% for the second.

First: O=C(NCCC1=CCCCC1)c1ccc2nc(N3CCCCC3)sc2c1
Second: Cn1cc(S(=O)(=O)N2CCCC2)cc1C(=O)NCCc1ccc(Cl)cc1
The “% Inhibition @ 10 uM” value of the first is higher: 5.73% for the first, -0.361% for the second.

First: NC1=NC(=O)/C(=C/c2ccc(OCc3cccc(Cl)c3)cc2)S1
Second: CCOc1cccc(/C=C2\SC(c3ccc(C)cc3)=NC2=O)c1O
The “% Inhibition @ 10 uM” value of the first is lower: -0.796% for the first, 31.4% for the second.

Compared with `Cc1ccc2nc(-c3ccc(NC(=O)Nc4ccc(Cl)cc4)cc3)sc2c1`, `Cc1cc(C)c2oc(-c3ccc(NC(=O)c4ccc(C)c([N+](=O)[O-])c4)cc3)nc2c1` is higher in “% Inhibition @ 10 uM” value: -0.0369% for the first, 3.03% for the second.

Going from `Cn1c(=O)[nH]c(=O)c2c1nc(CN(Cc1ccccc1)Cc1ccccc1)n2Cc1ccc(F)cc1` to `COc1ccc(C)cc1NC(=O)CN(Cc1ccc(F)cc1)S(=O)(=O)c1ccccc1`, the “% Inhibition @ 10 uM” value falls from 2.04% to -5.35%.

First: O=C(O)C1CCCCC1C(=O)Nc1nc(-c2ccc(Cl)s2)cs1 (centres unmarked)
Second: COc1ccc(NCC2CCCCC2)c(OC)c1
The “% Inhibition @ 10 uM” value of the first is lower: -2.53% for the first, -1.42% for the second.

Going from `CCCCCNC(=O)COc1ccc(Cl)cc1` to `CCCC(=O)Nc1ccccc1NC(=O)c1ccc(Cl)cc1`, the “% Inhibition @ 10 uM” value rises from -3.72% to -1.84%.

Compared with `CCOC(=O)C1=C(C)N=c2s/c(=C\c3ccc(Cl)cc3Cl)c(=O)n2C1/C=C/c1ccccc1` (centres unmarked), `CCCCn1/c(=N\C(=O)/C=C/c2ccccc2)c(C(=O)OCC)cc2c(=O)n3ccccc3nc21` is higher in “% Inhibition @ 10 uM” value: -3.74% for the first, -0.363% for the second.

First: CCN(Cc1ccccc1)S(=O)(=O)c1ccc2[nH]c3c(c2c1)CCCC3
Second: O=S(=O)(c1ccc(F)cc1)N1CCN(Cc2ccccc2)CC1
The “% Inhibition @ 10 uM” value of the first is higher: 1.21% for the first, -10.2% for the second.

Compared with `CC(C)Cn1c(CN2CCOCC2)nc2c1c(=O)n(C)c(=O)n2C`, `CCOc1ccc(C2C3=C(O)CCCC3=Nc3c2c(=O)n(C)c(=O)n3C)cc1` (centres unmarked) is lower in “% Inhibition @ 10 uM” value: 2% for the first, -1.47% for the second.

Going from `COc1ccc(-c2c(C)nn3c(C(F)(F)F)cc(C)nc23)cc1OC` to `NC(=O)CSc1nnc(-c2cccnc2)n1-c1cccc(C(F)(F)F)c1`, the “% Inhibition @ 10 uM” value falls from -2.91% to -8.91%.

Going from `CC(C)(C)C(=O)Nc1ccc(N2CCN(S(C)(=O)=O)CC2)cc1` to `Cc1ccccc1NC(=O)c1ccc(C)c(S(=O)(=O)N2CCOCC2)c1`, the “% Inhibition @ 10 uM” value rises from -4.49% to 2.4%.

First: Cc1noc(C)c1C1(O)CCCCCCCCC1
Second: CC(C)NS(=O)(=O)c1cn(CC(=O)NC2CCCCCCC2)cc1S(=O)(=O)NC(C)C
The “% Inhibition @ 10 uM” value of the first is higher: 10.1% for the first, -1.52% for the second.

Going from `N#CC1=C(Nc2ccc(Br)cc2)CCC1` to `O=C(COc1ccc(Br)cc1)Nc1ccc2ccccc2c1`, the “% Inhibition @ 10 uM” value falls from 10.5% to 2.93%.

Going from `CCNC(=O)/C(C#N)=C/c1c(Oc2ccccc2C)nc2ccccn2c1=O` to `Cc1ccccc1-c1nc2s/c(=C\c3ccccc3F)c(=O)n2n1`, the “% Inhibition @ 10 uM” value rises from -1.43% to -1.18%.

Compared with `Cn1c(C(Cc2ccccc2)NC(=O)C(C)(C)C)nc2ccccc21` (centres unmarked), `N#CCNC(=O)[C@@H](Cc1ccccc1)NC(=O)OCc1ccccc1` is lower in “% Inhibition @ 10 uM” value: -1.29% for the first, -6.56% for the second.

First: CCOC(=O)c1ccc2nsnc2c1
Second: CCOc1ccc(C(=O)N2CCn3c2nc2ccccc23)cc1
The “% Inhibition @ 10 uM” value of the first is lower: -11.9% for the first, -3.23% for the second.

Compared with `Cc1ccc(SC2=NS(=O)(=O)c3ccccc32)c(C)c1`, `Cc1cccc(NC2=NS(=O)(=O)c3ccccc32)c1` is higher in “% Inhibition @ 10 uM” value: -5.94% for the first, -2.5% for the second.

Compared with `CCN1CCC(C#N)(NC(=O)[C@H](Cc2c(F)cccc2F)NC(=O)c2ccc(-c3ccccc3Cl)cc2)CC1`, `CN(Cc1ccccc1)C(=O)C1CCCN(c2ncnc3onc(-c4ccc(F)cc4)c23)C1` (centres unmarked) is higher in “% Inhibition @ 10 uM” value: -3.48% for the first, 2.09% for the second.

First: COc1ccc2nc(NC(=O)c3cc(N)cc(N)c3)sc2c1
Second: COc1ccc(-c2cc3cc(Br)ccc3oc2=O)cc1
The “% Inhibition @ 10 uM” value of the first is higher: 7.16% for the first, -0.693% for the second.

First: O=C(NC(C(=O)c1ccccc1)N1CCCCCC1)c1ccco1 (centres unmarked)
Second: O=C(NC(Cc1ccccc1)c1ccc2c(c1)OCCCO2)c1cccnc1 (centres unmarked)
The “% Inhibition @ 10 uM” value of the first is lower: -5.14% for the first, 2.17% for the second.

Compared with `O=C1C2ON(c3ccccc3)C(c3ccc(O)cc3)C2C(=O)N1c1ccccc1` (centres unmarked), `O=C(NCCCN1CCc2ccccc2C1)c1cnn(-c2ccccc2)c1-n1cccc1` is higher in “% Inhibition @ 10 uM” value: -6.08% for the first, 1.8% for the second.

Going from `COc1ccccc1-c1cc(=O)n(CC(=O)N2CCOCC2)c2c1CCCC2` to `COc1ccccc1-c1c(C)oc2c(CN3CCCC(C)C3)c(O)ccc2c1=O` (centres unmarked), the “% Inhibition @ 10 uM” value falls from 2.04% to -2.91%.

First: N#C/C(=C/c1ccc(O)cc1)c1nc(-c2ccccc2)cs1
Second: O=C(Nc1cccc2cccnc12)c1ccccc1F
The “% Inhibition @ 10 uM” value of the first is higher: 15.7% for the first, 1.28% for the second.

Compared with `CCOC(=O)/C(C#N)=C/NC(=O)NC(C)(C)C`, `CCOC(=O)c1c(N)sc2c1CCC(C(C)(C)C)C2` (centres unmarked) is higher in “% Inhibition @ 10 uM” value: -4.06% for the first, 1.27% for the second.

First: CC[C@@H](C)[C@H](NC(=O)c1cccc(CN)c1)C(=O)N[C@@H](CCc1ccccc1)C(=O)CO
Second: CC(CCc1ccccc1)NCc1cccnc1 (centres unmarked)
The “% Inhibition @ 10 uM” value of the first is lower: -3.97% for the first, 1.88% for the second.

Compared with `CCOC(=O)c1cc2c(=O)n3ccccc3nc2n(CCCO)c1=N`, `C=CCNC(=O)c1cc2c(=O)n3ccccc3nc2n(CCC)c1=N` is higher in “% Inhibition @ 10 uM” value: -1.92% for the first, -1.47% for the second.

Going from `CCOC(=O)N1CCC2(CC1)OC(=O)C(C)=C2C(=O)NC(C)CC` (centres unmarked) to `CCOC(=O)N1CCN(S(=O)(=O)c2cccs2)CC1`, the “% Inhibition @ 10 uM” value falls from -2.13% to -3.93%.

Going from `c1ccc(C(CN2CCOCC2)c2ccccc2)cc1` to `CC(C)(C)C1CCc2c(sc(NC(=O)c3ccc(F)cc3)c2C(=O)N2CCOCC2)C1` (centres unmarked), the “% Inhibition @ 10 uM” value rises from -1.78% to 1.79%.

First: CCS(=O)(=O)N1CCC(C(=O)N2CCCCC2)CC1
Second: O=C(CCc1nnc2ccc(N3CCOCC3)nn12)NCCN1CCCC1
The “% Inhibition @ 10 uM” value of the first is lower: -2.99% for the first, -0.544% for the second.

Going from `CC(C)CCNc1ncnc2onc(-c3ccc(Cl)cc3)c12` to `COc1ccc(C2=CC(c3c(F)cccc3Cl)n3ncnc3N2)cc1` (centres unmarked), the “% Inhibition @ 10 uM” value falls from 8.62% to -3.37%.

First: Cc1ccc(OCCn2ncc3ccccc3c2=O)c(C)c1
Second: Cc1ccc2nc3c(O)n(CCCN4CCCC4=O)cnc-3c2c1
The “% Inhibition @ 10 uM” value of the first is higher: 3.25% for the first, 3.24% for the second.

First: CCNC(=O)/C(=C\c1ccc2c(c1)OCO2)NC(=O)c1ccccc1Br
Second: COCCn1c(C)cc(C(=O)C(=O)Nc2nnc(CCOc3ccccc3)s2)c1C
The “% Inhibition @ 10 uM” value of the first is lower: -4.49% for the first, -1.06% for the second.

First: CN1CCC2(CC1)NC(=O)NC2=O
Second: COc1cc(Br)cc(/C=C2/SC(=O)NC2=O)c1O
The “% Inhibition @ 10 uM” value of the first is lower: -1.99% for the first, 1.29% for the second.

First: COc1cc(OC)c(CN2CCSCC2)cc1Br
Second: COc1ccc(CCNC(=O)C2C3C=CC4(CN(Cc5cccs5)C(=O)C24)O3)cc1OC (centres unmarked)
The “% Inhibition @ 10 uM” value of the first is higher: 3.9% for the first, -3.79% for the second.

Going from `CC(=O)Nc1ccc(N2C(=O)CC(Sc3nccc(C)n3)C2=O)cc1` (centres unmarked) to `Cc1cc(C)nc(NS(=O)(=O)c2ccc(NC(=O)c3c(C)nn(-c4ccccc4)c3C)cc2)n1`, the “% Inhibition @ 10 uM” value rises from -4.49% to 2.03%.

First: CCc1nn(CC(=O)NCCCSC2CCCCC2)c(=O)c2cc3sccc3n12
Second: Cc1ccc(C(C)C)c(Oc2ccc(NC(=O)CCCC(=O)O)cc2)c1
The “% Inhibition @ 10 uM” value of the first is higher: 6.46% for the first, 2.32% for the second.

Going from `Cc1[nH]nc(-c2ccc(OCC(=O)O)cc2O)c1Oc1ccc(Cl)cc1Cl` to `Clc1cc(Cl)c(OCc2nc3ccccc3[nH]2)cc1Cl`, the “% Inhibition @ 10 uM” value rises from -3.92% to -3.27%.

Compared with `N#C/C(=C/c1cc(Br)cs1)C(N)=S`, `CCc1[nH]nc2c1C(c1ccc(Cl)s1)C(C#N)=C(N)O2` (centres unmarked) is lower in “% Inhibition @ 10 uM” value: 1.7% for the first, -6.51% for the second.

`OCCN1CCN(Cc2c(F)cccc2Cl)CC1` was tested, and the “% Inhibition @ 10 uM” value was -2.02%.

Reference: PMC6919601, “Identification of Plasmodium dipeptidyl aminopeptidase allosteric inhibitors by high throughput screening” (PLoS ONE, 2019)
